Source: PubChem BioAssay AID651820 (National Center for Advancing Translational Sciences (NCATS), 2012)
Hit rate of the full screen: of about 340,000 compounds, about 12,000 (3.5%) were called active. Inconclusive results, whose numbers are uncertain, are shown with a selection of clear calls. Calls follow the shape of the dose curve; as a rule, active = well fitted inhibition curve with a large enough effect; inconclusive = small, poorly fitted or top-dose-only effect, or another doubt; inactive = no such curve, though single readings can be large or run the other way. Potencies of inconclusive entries are left out as doubtful fits.
% is scaled to controls: 0 for no effect and ±100 for the full control effect; tags tell the direction and shape of the fitted curve.

Assay: qHTS Assay for Inhibitors of Hepatitis C Virus (HCV)
Details: Huh7.5.1 HCVcc-Cre (HCVcc is cell-culture hepatitis C virus) infection, luciferase reporter, 44 h; activity change, negative = inhibition: at 41.8 µM (top of the series)
Source text: Hepatitis C virus (HCV) infects about 200 million people in the world. Many infected people progress to chronic liver disease including cirrhosis with a risk of developing liver cancer. To date, there is no effective vaccine for hepatitis C. Current therapy based on interferon is only effective in about half of the patients and is associated with significant adverse effects. The fraction of people with HCV who can complete a successful treatment is estimated to be no more than 10 percent. Recent development of direct-acting antivirals against HCV, such as protease and polymerase inhibitors, is promising but still requires combination with peginterferon and ribavirin for maximal efficacy. In addition, these agents are associated with high rate of resistance and many have significant side effects. Due to the lack of a culture system for infectious HCV, the search for new HCV drugs has been greatly hampered. […] High-throughput screening (HTS) with an infectious HCV system would cover the complete spectrum of potentially druggable targets in all stages of HCV lifecycle, and would have more biological relevance than other cell-based assays. Moreover, targeting several key processes in the viral life cycle may not only increase antiviral efficacy; more importantly, it may also reduce the capacity of the virus to develop resistance to the compound. The goal of this project is to identify novel HCV inhibitors as new therapies for hepatitis C, using a highly sensitive and specific assay platform which is based on a HCV infectious cell culture system established in the laboratory and adapted for high-throughput HCV drug screen. NIH Chemical Genomics Center [NCGC] NIH Molecular Libraries Probe Centers Network [MLPCN] MLPCN Grant: MH095511 Assay Submitter (PI): Jake Liang, NIDDK
The assay will start with plating 1,000 cells/well in 3 µL volume and culture for 4 h. Then 23 nL of compounds from the library collection will be added to each well, followed by adding 2.5 µL of HCVcc-Cre virus (~ 0.5 moi) and further cultured for 44 h before the luciferase assay. A volume of 4.5 µL luciferase substrates will be added to each well and the plates will be incubated at room temperature for 15 min. and then read for 15 sec. for the luciferase activity
In the case of Cc1cccc(-c2c3c(=O)n(C)c(=O)n(C)c3cn2-c2ccccc2O)c1, the Potency is reported as inconclusive [inhibitor, single point]. For CN1CCN(CC(=O)c2cc(C(C)(C)C)c(O)c(C(C)(C)C)c2)CC1, the Potency was inconclusive [inhibitor, single point]. With Cc1cc(C)cc(OCC(=O)N2CCN(c3ncccn3)CC2)c1 the “activity change, negative = inhibition” value was inactive: -15.6%. In the case of CCOC(=O)C1=C(C)NC(C)=C(C(=O)OCC)C1C(=O)OCC(=O)NCc1ccccc1OC, the Potency is reported as inconclusive [inhibitor, single point]. For CC1(C)CC(=O)c2cnc(NCc3ccco3)nc2C1, the Potency was inconclusive [inhibitor, single point]. In the case of COc1cccc(NC(=S)/C(=C(\[O-])c2cc(C)n(-c3ccccc3F)c2C)[n+]2ccc(N(C)C)cc2)c1, the Potency is reported as inconclusive [inhibitor, single point]. For COc1cc2c(cc1OC)C(c1ccccc1)N(C(=O)c1ccccc1)CC2 (stereo not drawn), the Potency was inconclusive [inhibitor, single point]. For NS(=O)(=O)c1ccc(N2N=C(c3ccccc3)CC2c2cccc(F)c2)cc1 (stereo not drawn), the Potency was inconclusive [inhibitor, single point]. For Cc1ccc(-c2c(C(=O)N/N=C/c3c[nH]c4ccccc34)nnn2-c2nonc2N)cc1, the Potency was inconclusive [inhibitor, single point]. For CCNc1sc(C(=O)c2cccs2)c(N)c1C#N, the Potency was active: 12.6 µM. In the case of CN(C)CCCNC(=O)N1c2ccccc2Sc2ccccc21, the Potency is reported as inconclusive [inhibitor, single point]. In the case of Cc1cccc(C(=O)NCC(=O)N2CCN(c3ccc(Cl)cc3)CC2)c1, the Potency is reported as inconclusive [inhibitor, single point]. For CCS(=O)(=O)Nc1ccc(C2=NN(C(=S)Nc3ccccc3)C(c3ccco3)C2)cc1 (stereo not drawn), the Potency was inconclusive [inhibitor, partial curve]. With O=C(Cc1ccccc1)Nc1ccc2c(c1)OC1(CCCC1)O2 the “activity change, negative = inhibition” value was inactive: -1.16%. In the case of Cc1cccc(-c2ocnc2C(=O)Nc2ccccc2NC(=O)c2ccccn2)c1, the Potency is reported as inconclusive [inhibitor, partial curve]. For CCNc1c(NC(=O)c2ccc3c(c2)OCO3)c(=O)oc2ccccc12, the Potency was inconclusive [inhibitor, single point]. With O=S(=O)(NCc1cn2ccsc2n1)c1ccc(Oc2ccccc2)cc1 the Potency was active: 7.94 µM. In the case of COc1cc(NC(=O)c2ccc([N+](=O)[O-])o2)ccc1NC(=O)c1cccs1, the Potency is reported as inconclusive [inhibitor, partial curve, poor fit].
